From publication PMC6076302
These are yes or no findings as the source states them, for the method shown. For part of these data: Binding seen in cells or lysates may run through a third protein. Some entries that bind do so weakly or less than the wild type. For part of these data: Where a sequence is shown, tags or fusion partners need not be part of it.

T1: biotinylated-Pam3CSK4
T1 sequence (peptide, biotin; Pam3 lipid group (as in the name Pam3CSK4)): CSKKKK

B1: caspy2 (endogenous, ZF4 zebrafish fibroblasts) (enzyme, UniProt Q504J1 1-404)
chain: MEDITQLLSDVLEDLVESELKQFTRQLWIGVKPGVEPIPRGKLENKDRQDVVDSMVQQYSEDAGTITVQTLRKIKQNERAKRLESNLLKVQSQGQENKQNSEEPQPIPQIISQPIQQIISQPINNAGSEDLQPIQADWQRPRQIIPCSQETKNTLLKAHGDDIYTPRSGTQRKGLALLITNIQFANTQHNRNGADRDEENAEWLLRSLGFAVIKYRNLSGKDIRRAVENFSKRREHEDADSTFIVIMSHGTRIDNKDAIVGVSDDVYFIEETFSHLNSVNCPALIDKPKVILIQACRGGQSSGVLAQDSVFASDSWVHMEKDFVCFMSTMPNTFAYRNPIEGSFFISYIVDVFCSSAHRDDIMELFRKVTLRMEKDQRFQGQAKLLPCIERTSISKRFYLFPGL
B2: HA-tagged caspy2 (enzyme, UniProt Q504J1 1-404)
chain: B1 chain
B3: HA-tagged caspy (enzyme, UniProt Q9I9L7 1-383)
chain: MAKSIKDHLQDALSNIGADNLRRFQSRLGDRKQEPRVRKSTIEKLKDEIDLVDLLVNTFTSDAVSVTVDILRGIKCNAVAEELLENTGQGGVSQPEPPVPEPIPKDPAQLKELKVTPCSQQFKNKILREKGQETYEIKDKSVRKRLALLINNVDFDDKAMKRSGSEKDEENMEKLLKELDYQVVKRPNLSAKEMDEAIRDFAQREEHKYSDSAFVVIMSHGKRDAIMGVHYHRTNNPSDSFPVDNVYRRLNSENCPALRDKPKVILIQACRGGEHGRVWASDGEPDEPIEIEDDDFVHKEKDFISLMSCTPDTKSYRHVQNGTFYVQTLVDVFIKCAHEDHIEELFRKVLRRFEHPNMIGNFKQMACKDRATLPKLFYLFPGL

Columns and labels:
[1] = biological target: caspy2 (endogenous, ZF4 zebrafish fibroblasts) (zebrafish (endogenous in ZF4)) (UniProt Q504J1); assay: cross-linking; ZF4 cells infected with 0909I E. piscicida (MOI 50, 2 h, with/without 10 mM glycine); Triton X-100-insoluble pellets cross-linked with DSS (4 mM, 30 min, room temperature), SDS-PAGE, anti-caspy2 blot
[2] = biological target: caspy2 (endogenous, ZF4 zebrafish fibroblasts) (zebrafish (endogenous in ZF4)) (UniProt Q504J1); assay: native gel or EMSA; ZF4 cells infected with 0909I E. piscicida; digitonin-solubilised lysates on 4-12% blue native PAGE with 0.5% Triton X-100, anti-caspy2 blot
[3] = biological target: caspy2 (endogenous, ZF4 zebrafish fibroblasts) (zebrafish (endogenous in ZF4)) (UniProt Q504J1); assay: condition: only cells infected with EIB202 instead of 0909I E. piscicida; cross-linking; ZF4 cells infected with wild-type EIB202 E. piscicida (MOI 50, 2 h); Triton X-100-insoluble pellets cross-linked with DSS (4 mM, 30 min, room temperature), SDS-PAGE, anti-caspy2 blot
[4] = biological target: caspy2 (endogenous, ZF4 zebrafish fibroblasts) (zebrafish (endogenous in ZF4)) (UniProt Q504J1); assay: condition: only cells infected with EIB202 instead of 0909I E. piscicida; native gel or EMSA; ZF4 cells infected with wild-type EIB202 E. piscicida; digitonin-solubilised lysates on 4-12% blue native PAGE with 0.5% Triton X-100, anti-caspy2 blot
[5] = biological target: T1, biotinylated-Pam3CSK4; assay: pull-down; biotinylated Pam3CSK4 on streptavidin magnetic beads, mixed with purified HA-tagged protein at 4 °C overnight, washed with PBST, anti-HA blot; both purified

Binder	binding [1]	binding [2]	binding [3]	binding [4]	binding [5]
B1	binds	binds	no binding	no binding	
B2					no binding
B3					no binding
